Structures can show the parent of a compound that is named as a salt.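 Cells were grown in 96-well plates and exposed to each compound for 48 hours at five concentrations; endpoints were interpolated linearly between bracketing concentrations, or set to the highest concentration if not reached. At the GI50, growth is halved.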 Calls of active or inactive are those of the source. No stated cut-off is given here; in the data, active = GI50 up to about 1.1 µM and inactive = higher.
The compounds below were run on NCI-H322M (assay: inhibition of tumour cell growth, NCI panel, 48 h).

Row | SMILES | GI50
1 | CC(C)c1ccc(O)c(=O)c(O)c1.CC(C)c1ccc(O)c(=O)cc1.CC(C)c1cccc(=O)c(O)c1.CC(C)c1ccccc(=O)c1O | inactive: 1.97 µM
2 | COc1ccc(/C=C/C(=O)Oc2ccccc2OC)cc1 | inactive: > 63.2 µM
3 | CC1(C)C/C=C\CCC(O)C(O)CCC(C)(C)C1=O (centres undefined) | inactive: > 100 µM
4 | c1ccc(COc2nc3cc(C45CC6CC(CC(C6)C4)C5)ccc3[nH]2)cc1 | inactive: 25.6 µM
5 | N=C(N)N/N=C/c1c(-c2ccc(Cl)c(Cl)c2Cl)nc2sccn12 | inactive: 1.44 µM
6 | CSc1[nH]nc(N)c1C(=O)Nc1ccc(Cl)cc1 | inactive: 55.2 µM
7 | O=C(c1cc2ccccc2cc1O)N1CCCCC1 | inactive: > 100 µM
8 | O=c1[nH]c(=O)n(CCOc2ccc(Cl)cc2)cc1Nc1ccccc1 | inactive: > 100 µM
9 | Cc1c2ccccc2c(CO)c2cc(F)c3ccccc3c12 | inactive: > 100 µM
10 | CCCCNC(=O)C1C(=O)N(CCCC)C(=O)/C1=N\N (centres undefined) | inactive: > 100 µM
11 | CC(=O)OC(C#N)CC(C)(C)/[N+]([O-])=[N+](\[O-])C(C)(C)CC(C#N)OC(C)=O (centres undefined) | inactive: 26.1 µM
12 | NCCCCNCCCN [SPERMIDINE TRIHYDROCHLORIDE] | inactive: > 100 µM
13 | CCOC(=O)C(=O)Nc1ccc(C)c(C)c1 | inactive: > 100 µM
14 | OCC1OC(Oc2cc(O)cc(/C=C\c3ccc(O)cc3)c2)C(O)C(O)C1O (centres undefined) | inactive: > 100 µM
15 | CCN(CC)CCOCC1CCCN2CCCCC12 (centres undefined) | inactive: > 100 µM
16 | CC(=O)NC(CCCNC(=O)N(C)N=O)C(=O)NCc1ccccc1 (centres undefined) | inactive: > 100 µM
17 | Oc1ccc(/C=N/CC2CCCN3CCCCC23)cc1 (centres undefined) | inactive: 24.6 µM
18 | CCOC(=O)C1=C(C)NC(C)=C(C(=O)OCC)C1c1ccc(C)cc1 | inactive: 27.6 µM
19 | CN1CCN(CCn2c3c4ccccc4ccc3c3oc(=O)c4ccccc4c32)CC1 | inactive: 7.16 µM
20 | CC(C)=C1C(=O)C[C@]2(C)C[C@H]3O[C@]3(C)CC[C@@H]3O[C@@]3(C)CC[C@@H]12 | inactive: > 50 µM
21 | O=C1NC2NC3NC(=O)NC3NC2N1 (centres undefined) | inactive: > 100 µM
22 | COc1ccc(-c2cc(-c3ccc(Nc4ccnc5cc(Cl)ccc45)cc3)nc(N)c2C#N)c2ccccc12 | inactive: > 100 µM
23 | COc1ccc(C(=O)C2CCC(C(=O)O)C2)cc1 (centres undefined) | inactive: > 100 µM
24 | Cc1cn(C2CC(N)C(C(=O)O)O2)c(=O)[nH]c1=O (centres undefined) | inactive: > 100 µM

Row | SMILES | GI50
25 | O=C1c2cccc(O)c2C(=O)c2c(O)cccc21 [DANTHRON] | inactive: 40.5 µM
26 | C1CSCCCSCCSCCCSC1 | inactive: > 100 µM
27 | O/N=C1/Nc2ccccc2C(=S)N2CSCC12 (centres undefined) | inactive: 65.2 µM
28 | O=c1oc2ccccc2cc1-c1nc2ccccc2s1 | inactive: 10.5 µM
29 | O=C(N/N=C(COc1cccc(Cl)c1)\N=C\c1ccncc1)c1ccncc1 | inactive: > 100 µM
30 | Cc1ccc(NC(=O)C2C(=O)N(c3ccc(C)cc3)C(=O)/C2=N\NC(N)=S)cc1 (centres undefined) | inactive: > 100 µM
31 | O=C1Nc2ccccc2/C1=C/c1c(Cl)[nH]c2ccc(O)cc12 | inactive: 5.2 µM
32 | COC(=O)[C@@H](NC1(c2ccccc2)c2ccccc2-c2ccccc21)[C@@H](C(=O)OC)N(NC(=O)OCc1ccccc1)C(=O)OCc1ccccc1.COC(=O)[C@@H](NC1(c2ccccc2)c2ccccc2-c2ccccc21)[C@H](C(=O)OC)N(NC(=O)OCc1ccccc1)C(=O)OCc1ccccc1 | inactive: > 100 µM
33 | NC(=O)c1ncn(C2OC(CO)C(O)C2O)c1NC=O (centres undefined) | inactive: > 100 µM
34 | c1ccc([P+](Cc2ccc(C[P+](c3ccccc3)(c3ccccc3)c3ccccc3)cc2)(c2ccccc2)c2ccccc2)cc1 | inactive: > 100 µM
35 | CC(=O)OCC1OC(n2c3c(cc(C#N)c2=S)CCC3)C(OC(C)=O)C(OC(C)=O)C1OC(C)=O (centres undefined) | inactive: > 100 µM
36 | COC(=O)C1C2CC3C1C3C2C(=O)OC (centres undefined) | inactive: > 100 µM
37 | CCO[C@@H]1C2C=CC(C2)[C@H]1[N+](=O)[O-] (some centres undefined) | inactive: > 100 µM
38 | O=C1C(Cl)=C(Nc2ccc(S(=O)(=O)O)cc2)C(=O)c2ccccc21 | inactive: 33.7 µM
39 | N#CC1(C#N)NC(c2cccs2)C(C#N)(C#N)NC1c1cccs1 (centres undefined) | inactive: 57 µM
40 | Brc1cc(C2OCCCO2)ccc1OCc1ccccc1 | inactive: 35.1 µM
41 | N=C(N)n1nc2c(c1O)CCCC2 | inactive: > 100 µM
42 | OC1(c2ccc(-c3ccccc3)cc2)c2ccccc2C2=NCCN21 (centres undefined) | inactive: 67.9 µM
43 | OCC1OC(n2cnc3c(SCc4ccccc4)ncnc32)C(O)C1O (centres undefined) | inactive: 5.35 µM
44 | O=C(/C=C/NC(=O)OCc1ccccc1)OCc1ccccc1 | inactive: > 100 µM
45 | CCOC(=O)c1nc2cc(F)c(F)cc2nc1NCc1cc(OC)c(OC)c(OC)c1 | inactive: > 100 µM
46 | CC1=C(C(=O)NCCc2ccccc2)CC(C(=O)NCCc2ccccc2)=C(C)N1 | inactive: > 100 µM
47 | COC(=O)C(Cc1nc2ccccc2nc1O)C(=O)C(=O)Nc1ccc(F)cc1 (centres undefined) | inactive: > 100 µM
48 | C=C1C(=O)OC2C1C(OC(=O)/C(C)=C/C)CC(O)(CCl)C1C(O)C=C(C)C21O (centres undefined) | inactive: 30.7 µM

Row | SMILES | GI50
49 | Cc1nnc2sc(-c3ccc(N)cc3)nn12 | inactive: > 100 µM
50 | O=C1OC2C=CCC1C2 (centres undefined) | inactive: > 100 µM
51 | NC(=O)/N=C(\N)NC(=O)c1ccccc1 | inactive: > 100 µM
52 | COc1nc2c(c(=O)[nH]1)N=C(c1ccc([N+](=O)[O-])cc1)CC(c1ccccc1)N2 (centres undefined) | inactive: > 100 µM
53 | COc1ccc(S(=O)(=O)NC(CCC(=O)NN)C(=O)NN)cc1 (centres undefined) | inactive: > 100 µM
54 | O=C1C2c3[nH]c4ccccc4c3C3CCSCC3C2C(=O)N1c1ccccc1 (centres undefined) | inactive: > 100 µM
55 | CC(C)(C)C(=O)C(C#N)C(=O)C(C)(C)C | inactive: > 100 µM
56 | CC(C)(C)C#C[P+](c1ccccc1)(c1ccccc1)c1ccccc1 | active: 0.521 µM
57 | CC(=O)/C(=C/N1CCNC1=S)C(=O)Nc1ccccc1C | inactive: > 100 µM
58 | O=C1OC(=O)C2C3CCC(O3)C12 (centres undefined) | inactive: > 100 µM
59 | CSc1ncc2c(n1)sc1c(=O)n(-c3ccccc3)cnc12 | inactive: > 100 µM
60 | COc1cc(-c2[nH]ccc2Cl)oc1C1=C2N=C3C=C2C(C(C)C)C1CCCCCCCC3 (centres undefined) | active: 0.971 µM
61 | CSc1ccc2c(cc1=O)[C@@H](NC(=O)c1cc(O)c(O)c(O)c1)CCc1cc(O)c(O)c(O)c1-2 | inactive: 20 µM
62 | O=S(=O)(c1cc(Cl)ccc1Cl)N1CCN(c2ccc(Cl)c(Cl)c2)CC1 | inactive: 37.4 µM
63 | CCOP(=O)(OCC)C(c1ccc(F)cc1)N(C(=O)NC(F)(F)F)c1ccc(F)cc1 (centres undefined) | inactive: > 100 µM
64 | C#CC1(O)C(COP(=O)(O)OC(COCCCCCCCCCCCCCCCCCC)COP(=O)(O)OCC2OC(n3cc(C)c(=O)[nH]c3=O)CC2N=[N+]=[N-])OC(n2ccc(N)nc2=O)C1O (centres undefined) | active: 1.04 µM
65 | Cc1cnc[nH]c1=O | inactive: > 100 µM
66 | O=Cc1ccc(-c2ccc(-c3ccc(CO)s3)o2)s1 | inactive: 33.8 µM
67 | COC(=O)c1nn2ccc3ccccc3c2c1C(=O)OC | inactive: > 100 µM
68 | C#CCOC(=O)C(N)CCCNC(=N)N (centres undefined) | inactive: > 100 µM
69 | N#Cc1nc(COCc2ccccc2)oc1N | inactive: > 100 µM
70 | CC(NC(=O)C(NC(=O)C(NC(=O)C(F)(F)F)C(C)C)C(C)C)C(=O)Oc1c(Cl)c(Cl)c(Cl)c(Cl)c1Cl (centres undefined) | inactive: > 100 µM
71 | CC(=O)OC1CC2CCC1(C)C2(C)C (centres undefined) | inactive: > 100 µM
72 | Clc1ccccc1C1=NN(c2ccccc2)C2c3cc(Br)ccc3OCC12 (centres undefined) | inactive: > 100 µM

Row | SMILES | GI50
73 | O=C(O)/C(=C/C=C/c1ccccc1)c1csc(-c2nc(/C(=C\C=C\c3ccccc3)C(=O)O)cs2)n1 | inactive: 39.1 µM
74 | O=c1c2cc(I)ccc2nc(Sc2ncccc2[N+](=O)[O-])n1Cc1ccccc1 | inactive: 39.7 µM
75 | COC(=O)CCc1c(Cc2ccc[nH]2)[nH]c(C(=O)OCc2ccccc2)c1C | inactive: > 100 µM
76 | CN(C)CCCNC(=O)c1cc2/c(=C\c3ccc(N(C)C)cc3)c3ccccc3n2[n+]1C | inactive: 25.4 µM
77 | CCOc1ccc2nc(NC(NC(=O)c3cccnc3)(C(F)(F)F)C(F)(F)F)sc2c1 | inactive: 42.4 µM
78 | O=C1/C(=C\c2ccccc2)CN(C(=O)CCN2CCCCC2)C/C1=C/c1ccccc1 | inactive: 2.12 µM
79 | CN(CCCNC(=O)c1cc(-c2ccccc2)nc2ccccc12)CCCNC(=O)c1cc(-c2ccccc2)nc2ccccc12 | inactive: 6.85 µM
80 | N#C/N=C(\NCCc1c[nH]c2ccccc12)NCc1ccccc1 | inactive: > 100 µM
81 | O=C(CCO)OCCCCCC/C=C\CCCCCC/C=C\CCCCCCCCOC(=O)CCO | inactive: 17.2 µM
82 | COc1cc(/C=C2/Oc3c(OC)cccc3C2=O)ccc1O | inactive: 85.9 µM
83 | O=C(Cn1c(C(=O)/C=C/c2ccc(Cl)c(Cl)c2)nc2ccccc21)c1ccccc1 | inactive: 17.2 µM
84 | O=C(Cc1ccc([N+](=O)[O-])cc1)OCC#CCOC(=O)Cc1ccc([N+](=O)[O-])cc1 | inactive: > 10 µM
85 | CC(C)(C)C(=O)CC1=Nc2ccccc2SC1(O)CC(=O)C(C)(C)C (centres undefined) | inactive: 29.9 µM
86 | COC1OC(COC(=O)NCCCCC(=O)C(F)(F)F)C(O)C(O)C1O (centres undefined) | inactive: > 100 µM
87 | C/C=C(/C)C(=O)OC1CC(C)[C@H]2CC(=O)C(C)=C2CC1C(C)(C)OC(C)=O (some centres undefined) | inactive: 40.5 µM
88 | c1ccc(CSc2nc(N3CCOCC3)c3cn[nH]c3n2)cc1 | inactive: 30.4 µM
89 | CCN(CC)CCC(=O)c1ccc(C)cc1 | inactive: > 100 µM
90 | O=[N+]([O-])c1sc2ccc(Cl)cc2c1Nc1ccc(Cl)cc1 | inactive: > 100 µM
91 | CC(C)[Si](OC1=C(C(=O)N(C)c2cccc(Cl)c2)CCCC1)(C(C)C)C(C)C | inactive: 15 µM
92 | CCOc1ccc(NC(=O)CC2SC(Nc3ccc(C)cc3)=NC2=O)cc1 (centres undefined) | inactive: > 100 µM
93 | CN(C)CCN1C(=O)c2ccccc2C1(O)c1ccc(Cl)cc1 (centres undefined) | inactive: > 100 µM
94 | C=CC[C@@H]1C(=O)[C@@]2(O[Si](C(C)C)(C(C)C)C(C)C)CC[C@@H]1C[C@H]2NC(=O)OCC(Cl)(Cl)Cl | inactive: > 100 µM

— ChEMBL document CHEMBL1201862, “PubChem BioAssay data set” (2004)
